Assay in all cases: Primary Screen for Target Class Profiling of Small Molecule Inhibitors of Methyltransferases
Test [1] concerns the target Glycine N-methyltransferase (Homo sapiens) (UniProt Q14749). The following applies: purified enzyme, MTase-Glo SAH luminescence; measured here: GNMT inhibition; at 40 µM; stronger effect = lower value. A digest of the protocol:
(§1)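 Each enzyme was reacted with SAM and its substrate, with compounds tested once at 40 uM; SAH formed was read by MTase-Glo luminescence.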

The target of test [2] is Guanidinoacetate N-methyltransferase (Homo sapiens) (UniProt Q14353). The following applies: purified enzyme, MTase-Glo SAH luminescence; measured here: GAMT inhibition; at 40 µM; stronger effect = lower value. In outline:
as §1

Test [3] has as its target Histamine N-methyltransferase (Homo sapiens) (UniProt P50135). Particulars: purified enzyme, MTase-Glo SAH luminescence; measured here: HNMT inhibition; at 40 µM; stronger effect = lower value. In outline: as §1
The target of test [4] is Nicotinamide N-methyltransferase (Homo sapiens) (UniProt P40261). Particulars: purified enzyme, MTase-Glo SAH luminescence; measured here: NNMT inhibition; at 40 µM; stronger effect = lower value. A digest of the protocol: as §1
In test [5] the target is Phenylethanolamine N-methyltransferase (Homo sapiens) (UniProt P11086). Particulars: purified enzyme, MTase-Glo SAH luminescence; measured here: PNMT inhibition; at 40 µM; stronger effect = lower value. In outline: as §1

The list shows a part of the results. Further columns of the screen follow, without active or inactive calls.
On the % scale 0 is the no-effect control and ±100 the full control effect.

For the compound `Fc1ccc(N2CCCCC2)c(NC(=S)c2ccncc2)c1`, the activity change, negative = inhibition in test [1] is -5.01%; in test [2], -13.6%; in test [3], -1.27%; in test [4], -26.7%; in test [5], -56.5%.

For the compound `O=C(Nc1ccc2c(c1)OCCO2)N1CCCCC1c1nc(CCOCC2CC2)no1` (centres undefined), the activity change, negative = inhibition was -4.55% in test [1]; -8.09% in test [2]; -1.62% in test [3]; -7.61% in test [4]; 1.36% in test [5].

As for `COc1cccc(CN2C(=O)c3cc4ccccc4n3CC2(C)C(=O)NC2CCCC2)c1OC` (centres undefined), the activity change, negative = inhibition in test [1] was 4.54%; in test [2] it was 3.26%; in test [3], 4.58%; in test [4] it was -5.39%; in test [5], -0.136%.

On to `CC(C)OCCCn1c(=O)c2ccccc2n2c(=O)n(Cc3c(F)cccc3Cl)nc12`, for which the activity change, negative = inhibition in test [1] was -11%; in test [2], -1.09%; in test [3], 2.35%; in test [4] it was -18.8%; in test [5] it was -4.52%.

Regarding `Cc1ccc(C(=O)N2CCC3(CC2)CC(c2ccccc2)C(=O)N3C)s1` (centres undefined), the activity change, negative = inhibition was -0.085% in test [1]; -2.93% in test [2]; 2.66% in test [3]; -0.947% in test [4]; -10.8% in test [5].

With `Cc1ccc(C(=O)Nc2ccc(Oc3cc4cnn(C)c4cc3-c3cn[nH]c3)c(F)c2)c(=O)n1-c1ccc(F)cc1`, the activity change, negative = inhibition in test [1] was 4.92%; in test [2] it was -11.6%; in test [3] it was -10.1%; in test [4], -34%; in test [5], 4.49%.

As to `N#CCNC(=O)c1ccc(-c2ccnc(Nc3ccc(N4CCOCC4)cc3)n2)cc1`, the activity change, negative = inhibition in test [1] is -43%; in test [2], -3.26%; in test [3], 0.68%; in test [4], -11.7%; in test [5] it was -0.022%.

As for `Cc1ccc(N2C(=O)c3cc(C4CC4)nn3CC2(C)C(=O)NC2CCCCCC2)cc1Cl` (centres undefined), the activity change, negative = inhibition in test [1] is -5.18%; in test [2], 2.59%; in test [3], 0.93%; in test [4] it was -6.08%; in test [5], 0.323%.

In the case of `CC(C)CCn1c(=O)c2ccc(C(=O)NCC(C)C)cc2n2c(=O)n(CC(N)=O)nc12`, the activity change, negative = inhibition in test [1] is -4.12%; in test [2], 1.97%; in test [3], -1.61%; in test [4], -19.6%; in test [5], -7.55%.

On to `CC(C(=O)N1CCCCC1)n1ccc2cc(S(=O)(=O)N3CCCC3)ccc21` (centres undefined), for which the activity change, negative = inhibition in test [1] was 4.35%; in test [2] it was 7.96%; in test [3], 2.98%; in test [4], 0.706%; in test [5] it was 1.46%.

Turning to `CN(C)C[C@@H]1CN(c2ncccn2)C[C@H]1NS(=O)(=O)c1cccnc1`, the activity change, negative = inhibition in test [1] was 1.11%; in test [2], -2.49%; in test [3] it was 0.339%; in test [4], 0.958%; in test [5], 1.21%.

Turning to `CCOC(=O)c1cc2n(n1)CC(C)(C(=O)NCc1ccccc1)N(c1ccc(C)c(C)c1)C2=O` (centres undefined), the activity change, negative = inhibition in test [1] is -4.27%; in test [2] it was 3.28%; in test [3], -1.23%; in test [4] it was -4.35%; in test [5] it was -4.72%.

With `Cc1nn(C)c(C)c1-c1nc2cc(S(=O)(=O)N3CCCC3)ccc2n1C`, the activity change, negative = inhibition is -5.06% in test [1]; -6.41% in test [2]; -2.15% in test [3]; -10.2% in test [4]; -4.03% in test [5].

For `Cc1nc2c(NC3CCN(C(=O)c4cnccn4)CC3)cccn2n1`, the activity change, negative = inhibition in test [1] is -5.32%; in test [2] it was 0.069%; in test [3], -1.88%; in test [4], -2.72%; in test [5], -2.79%.

Regarding `CN(Cc1ccc(OC(F)(F)F)cc1)Cc1ccccc1C(F)(F)F`, the activity change, negative = inhibition in test [1] is -0.032%; in test [2], 0.805%; in test [3] it was 1.19%; in test [4], -2.81%; in test [5], 5.59%.

For `Cc1ccc(S(=O)(=O)c2nnn3c2nc(N2CCN(c4ccccn4)CC2)c2ccccc23)cc1C`, the activity change, negative = inhibition is -2.46% in test [1]; 1.3% in test [2]; -4.61% in test [3]; -2.81% in test [4]; -0.678% in test [5].

Turning to `CCCn1c(=O)c2ccc(C(=O)NC3CCCCC3)cc2n2c(=O)n(Cc3ccccc3)nc12`, the activity change, negative = inhibition in test [1] is 5.41%; in test [2], 1.33%; in test [3], 8.08%; in test [4], 7.49%; in test [5] it was 7.62%.

As to `CN(CCc1ccc(Nc2ncc(-c3cccnc3)s2)cc1)Cc1ccccc1`, the activity change, negative = inhibition in test [1] is -16.7%; in test [2], 1.44%; in test [3], -59.3%; in test [4], -64.2%; in test [5], -9.61%.

As to `CCCNC(=O)N1Cc2c(sc3c2CCCC3)-n2cccc2C1c1cccc(OCC)c1` (centres undefined), the activity change, negative = inhibition in test [1] is -3.41%; in test [2], 4.32%; in test [3], -2.37%; in test [4], -4.21%; in test [5], 1.22%.

Turning to `Cn1c2c(c3ccccc31)C(C(=O)NCc1ccc(F)cc1)N(c1cccc(Cl)c1)C(=O)CS2` (centres undefined), the activity change, negative = inhibition is -1.9% in test [1]; 0.004% in test [2]; 10.1% in test [3]; 7.58% in test [4]; 5.8% in test [5].

Turning to `CC1CC(O)C2(OC1=O)OC1C(O)C3C4CCC5CC(OC6OC(CO)C(O)C(O)C6OC6OC(C)C(O)C(O)C6O)CCC5(C)C4CCC3(C)C1C2C` (centres undefined), the activity change, negative = inhibition in test [1] is 1.7%; in test [2], -7.15%; in test [3], 7.92%; in test [4], -19.5%; in test [5], 1.69%.

In the case of `CC1(C(=O)NC2CCCC2)Cn2c(nc3ccccc32)C(=O)N1Cc1ccco1` (centres undefined), the activity change, negative = inhibition in test [1] turned out to be 2.8%; in test [2] it was 0.59%; in test [3], 5.42%; in test [4], 2.14%; in test [5] it was 0.743%.

Regarding `Cc1ccc(CN2C(=O)c3cc4ccccc4n3CC2(C)C(=O)NC2CCCCC2)cc1` (centres undefined), the activity change, negative = inhibition in test [1] is -3.95%; in test [2], 4.25%; in test [3], 1.6%; in test [4] it was -11.3%; in test [5], -4.06%.

`CCC1C(=O)N(C)c2cnc(Nc3ccc(C(=O)NC4CCN(C)CC4)cc3OC)nc2N1C1CCCC1` (centres undefined): the activity change, negative = inhibition in test [1] was -35.9%; in test [2], -14.7%; in test [3], -59.2%; in test [4], -58.9%; in test [5], -38%.

On to `CC1(C(=O)NC2CCCCCC2)Cn2c(cc3sccc32)C(=O)N1CC1CCCO1` (centres undefined), for which the activity change, negative = inhibition was -4.89% in test [1]; 4.72% in test [2]; 1.99% in test [3]; -4.93% in test [4]; -3.96% in test [5].

`CN1CC[C@@H](NC(=O)Nc2ccc(C#N)cc2)C[C@@H]1c1nc2ccccc2[nH]1`: the activity change, negative = inhibition in test [1] is -0.372%; in test [2] it was 8.38%; in test [3], 11.9%; in test [4], -12.2%; in test [5], 5.05%.

For the compound `CO[C@H]1[C@H](NC(=O)c2ccc(C)c(O)c2)c2ccccc2C12CCNCC2`, the activity change, negative = inhibition in test [1] is -3.92%; in test [2], -3.72%; in test [3], -0.215%; in test [4], -8.67%; in test [5], -2.44%.

Consider `CCC1(C(=O)NCCCN2CCCC2=O)CCCCC(=O)N1` (centres undefined), for which the activity change, negative = inhibition was -0.674% in test [1]; 0.721% in test [2]; 1.26% in test [3]; -3.94% in test [4]; -0.822% in test [5].

As to `CC(C)c1ccc(N2CC(C(=O)N(C)C3CCSCC3)CC2=O)cc1` (centres undefined), the activity change, negative = inhibition in test [1] is -9.2%; in test [2], -5.62%; in test [3], -4.64%; in test [4] it was -7.49%; in test [5], -6.03%.

Take `O=C(NCc1ccc2c(c1)OCO2)c1ccc2c(=O)nc3c(-c4ccc(Cl)cc4)n[nH]n3c2c1`: the activity change, negative = inhibition is -5.61% in test [1]; 0% in test [2]; 1.41% in test [3]; -8.82% in test [4]; -5.54% in test [5].

Turning to `CCCCNc1ncc2c(-c3ccc(F)cc3)nn(CC3CCC(N)CC3)c2n1` (centres undefined), the activity change, negative = inhibition in test [1] is -8.17%; in test [2], 4.49%; in test [3], -12.4%; in test [4] it was -15.2%; in test [5], -3.73%.

As for `N#Cc1ccc(-c2csc(NN=C3CCCC3)n2)cc1`, the activity change, negative = inhibition in test [1] was -70.6%; in test [3], -9.29%; in test [4] it was 0.848%; in test [5] it was 25.1%.

For the compound `Cc1cc2c(cc3n2CC(C)(C(=O)NC2CCCCCC2)N(CCCN2CCCCC2)C3=O)o1` (centres undefined), the activity change, negative = inhibition was 7.35% in test [1]; 0.385% in test [2]; -0.631% in test [3]; 1.34% in test [4]; 3.37% in test [5].

For the compound `CCn1cc(CN2CC[C@H](CNC(=O)COC)[C@H](N(C)C)C2)c(C)n1`, the activity change, negative = inhibition is -0.073% in test [1]; 0.625% in test [2]; 0.647% in test [3]; -0.989% in test [4]; -11.9% in test [5].

For the compound `O=C(/C=C/c1ccc(O)cc1)c1ccc(O)cc1O`, the activity change, negative = inhibition is -10.8% in test [1]; 2.7% in test [2]; 0.176% in test [3]; -11.1% in test [4]; -3.48% in test [5].

As to `CC(C(N)=O)N1CCn2nc(CCC(=O)N3CCOCC3)cc2C1` (centres undefined), the activity change, negative = inhibition in test [1] was -0.729%; in test [2], -0.236%; in test [3], -0.136%; in test [4], 1.48%; in test [5] it was 0.672%.

`COc1cccc(Nc2nn3c(=O)c4ccc(C(=O)NCc5ccccn5)cc4nc3s2)c1`: the activity change, negative = inhibition in test [1] is -8.87%; in test [2] it was 3.32%; in test [3], 2.49%; in test [4] it was 1.16%; in test [5] it was -1.21%.

For `Cc1ccc(CNC(=O)C2(C)Cn3nc(C(=O)NCc4ccco4)cc3C(=O)N2C)cc1` (centres undefined), the activity change, negative = inhibition in test [1] is 2.45%; in test [2], 2.93%; in test [3] it was 3.62%; in test [4] it was 1.33%; in test [5] it was 3.67%.

Take `Cc1nn(C)c2c(=O)n(CC(=O)N3CCN(c4ccccn4)CC3)ccc12`: the activity change, negative = inhibition in test [1] came to 6.76%; in test [2] it was 2.36%; in test [3] it was 12.6%; in test [4] it was 5.49%; in test [5], 6.48%.

(Values after PubChem BioAssay AID1745853 (National Center for Advancing Translational Sciences (NCATS), 2022).)
